Experimental data as given in the supplement of paper PMC4967469.

What was measured:
Assay in all cases: Viability of human cancer cell lines after 72 h of drug (GDSC screen)
EHT 1864 = compound: O=c1cc(CN2CCOCC2)occ1OCCCCCSc1ccnc2cc(C(F)(F)F)ccc12 [EHT 1864]; conditions: top dose 10 µM; top dose inferred
Description: (§1)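 Human cancer cell lines in 384-well plates, medium with 10% serum, drug for 72 h over a 256-fold dose range (nine 2-fold or five 4-fold steps up to the top dose). Adherent lines were fixed and stained with the nucleic acid dye Syto60, suspension lines read with resazurin; signal relative to control wells, capped at 0 and 100%. One two-parameter sigmoid per drug and line, fitted in a mixed model over all curves with the slope shared within a line.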

Erlotinib = compound: C#Cc1cccc(Nc2ncnc3cc(OCCOC)c(OCCOC)cc23)c1 [Erlotinib]; conditions: top dose 2 µM
Description: as §1

XL-184 = compound: COc1cc2nccc(Oc3ccc(NC(=O)C4(C(=O)Nc5ccc(F)cc5)CC4)cc3)c2cc1OC [XL-184]; conditions: top dose 5.12 µM; top dose inferred
Description: as §1

NU-7441 = compound: O=c1cc(N2CCOCC2)oc2c(-c3cccc4c3sc3ccccc34)cccc12 [NU-7441]; conditions: top dose 2 µM; top dose inferred
Description: as §1

AG-014699 = compound: CNCc1ccc(-c2[nH]c3cc(F)cc4c3c2CCNC4=O)cc1 [AG-014699]; conditions: top dose 5 µM; top dose inferred
Description: as §1

QL-XI-92 = compound: C=CC(=O)Nc1cc(NC(=O)c2ccc(C)c(NC(=O)c3ccno3)c2)cc(C(F)(F)F)c1 [QL-XI-92]; conditions: top dose 10.24 µM; top dose inferred
Description: as §1

Phenformin = compound: N=C(N)NC(=N)NCCc1ccccc1 [Phenformin]; conditions: top dose 4000 µM; top dose inferred
Description: as §1

Gefitinib = compound: COc1cc2ncnc(Nc3ccc(F)c(Cl)c3)c2cc1OCCCN1CCOCC1 [Gefitinib]; conditions: top dose 0.5 µM
Description: as §1

Vinorelbine = compound: CCC1=C[C@@H]2CN(C1)Cc1c([nH]c3ccccc13)[C@@](C(=O)OC)(c1cc3c(cc1OC)N(C)[C@H]1[C@@](O)(C(=O)OC)[C@H](OC(C)=O)[C@]4(CC)C=CCN5CC[C@]31[C@@H]54)C2 [Vinorelbine]; conditions: top dose 0.064 µM; top dose inferred
Description: as §1

WHI-P97 = compound: COc1cc2ncnc(Nc3cc(Br)c(O)c(Br)c3)c2cc1OC [WHI-P97]; conditions: top dose 10.24 µM; top dose inferred
Description: as §1

S-Trityl-L-cysteine = compound: N[C@@H](CSC(c1ccccc1)(c1ccccc1)c1ccccc1)C(=O)O [S-Trityl-L-cysteine]; conditions: top dose 5.12 µM; top dose inferred
Description: as §1

Row | Cell Line | AUC (EHT 1864) | IC50 (EHT 1864) [µM] | AUC (Erlotinib) | IC50 (Erlotinib) [µM] | AUC (XL-184) | IC50 (XL-184) [µM] | AUC (NU-7441) | IC50 (NU-7441) [µM] | AUC (AG-014699) | IC50 (AG-014699) [µM] | AUC (QL-XI-92) | IC50 (QL-XI-92) [µM] | AUC (Phenformin) | IC50 (Phenformin) [µM] | AUC (Gefitinib) | IC50 (Gefitinib) [µM] | AUC (Vinorelbine) | IC50 (Vinorelbine) [µM] | AUC (WHI-P97) | IC50 (WHI-P97) [µM] | AUC (S-Trityl-L-cysteine) | IC50 (S-Trityl-L-cysteine) [µM]
1 | RC-K8 (B-cell lymphoma, suspension) | 0.977 | > 10 | 0.993 | > 2 | 0.989 | > 5.12 | 0.989 | > 2 | 0.993 | > 5 | 0.993 | > 10.2 | 0.703 | 852 | 0.989 | > 0.5 | 0.976 | > 0.064 | 0.993 | > 10.2 | – | –
2 | SCC-3 (B-cell lymphoma, suspension) | – | – | 0.995 | > 2 | 0.96 | > 5.12 | – | – | – | – | 0.817 | 3.83 | 0.914 | 2880 | – | – | 0.754 | 0.0166 | 0.997 | > 10.2 | 0.681 | 0.875
3 | SIG-M5 (acute myeloid leukaemia, suspension) | – | – | 0.976 | > 2 | 0.841 | 2.35 | – | – | – | – | 0.828 | 4.3 | 0.512 | 267 | – | – | 0.402 | 0.00231 | 0.911 | 8.01 | 0.675 | 0.858
4 | SK-MEL-2 (melanoma, adherent) | 0.987 | > 10 | 0.987 | > 2 | 0.987 | > 5.12 | 0.977 | > 2 | 0.986 | > 5 | 0.985 | > 10.2 | 0.894 | > 4000 | 0.985 | > 0.5 | 0.615 | 0.00842 | 0.985 | > 10.2 | – | –
5 | SU-DHL-8 (B-cell lymphoma, suspension) | – | – | 0.949 | > 2 | 0.883 | 4.84 | 0.988 | > 2 | 0.988 | > 5 | 0.691 | 2.11 | 0.123 | 17.7 | – | – | 0.663 | 0.011 | 0.988 | > 10.2 | 0.659 | 0.854
6 | TUR (B-cell lymphoma, suspension) | 0.932 | > 10 | – | – | 0.923 | > 5.12 | 0.987 | > 2 | 0.979 | > 5 | 0.962 | > 10.2 | 0.569 | 379 | 0.979 | > 0.5 | 0.569 | 0.00608 | 0.969 | > 10.2 | 0.987 | > 5.12
7 | U-698-M (B-cell leukaemia, suspension) | 0.901 | > 10 | – | – | 0.912 | > 5.12 | 0.97 | > 2 | 0.987 | > 5 | 0.965 | > 10.2 | 0.537 | 316 | 0.983 | > 0.5 | 0.634 | 0.0094 | 0.903 | > 10.2 | 0.96 | > 5.12
8 | UACC-257 (melanoma, adherent) | 0.843 | 9.79 | 0.973 | > 2 | 0.916 | > 5.12 | – | – | 0.892 | > 5 | 0.97 | > 10.2 | 0.725 | 1290 | – | – | 0.76 | 0.0277 | 0.978 | > 10.2 | – | –
9 | VA-ES-BJ (soft tissue, adherent) | 0.925 | > 10 | – | – | 0.959 | > 5.12 | 0.923 | > 2 | 0.956 | > 5 | 0.982 | > 10.2 | 0.947 | > 4000 | 0.956 | > 0.5 | 0.47 | 0.00329 | 0.985 | > 10.2 | 0.655 | 0.887
10 | VAL (B-cell lymphoma, suspension) | 0.981 | > 10 | 0.973 | > 2 | 0.895 | > 5.12 | 0.967 | > 2 | 0.978 | > 5 | 0.716 | 2.62 | 0.583 | 421 | 0.98 | > 0.5 | 0.874 | 0.0629 | 0.904 | > 10.2 | – | –
11 | VCaP (prostate, adherent) | 0.984 | > 10 | – | – | 0.93 | > 5.12 | 0.979 | > 2 | 0.987 | > 5 | 0.878 | > 10.2 | 0.976 | > 4000 | 0.987 | > 0.5 | 0.664 | 0.0116 | 0.953 | > 10.2 | 0.816 | 2.97
12 | WIL2-NS (lymphoid neoplasm, suspension) | 0.981 | > 10 | – | – | 0.912 | 4.96 | 0.992 | > 2 | 0.991 | > 5 | 0.921 | > 10.2 | 0.37 | 118 | 0.992 | > 0.5 | 0.568 | 0.00591 | 0.98 | > 10.2 | 0.687 | 0.95
13 | WSU-NHL (lymphoid neoplasm, suspension) | 0.955 | > 10 | – | – | 0.872 | 3.88 | 0.831 | 1.06 | 0.976 | > 5 | 0.989 | > 10.2 | 0.754 | 1200 | 0.987 | > 0.5 | 0.828 | 0.0331 | 0.99 | > 10.2 | 0.98 | > 5.12

Lines with a small IC50 respond at low doses; a limit (>, <) means that the fit lies beyond the doses tested. AUC, from the same fit, is the share of area under the viability curve across the 256-fold dose range; values near 1 show little effect. For some assays here: Any top dose called inferred was derived from the fitted curves, not read from the paper.
